Data reported in the supplement of paper PMC3334620.
Whole data set: some 33,000 sequences, median “E-score (-0.5 to 0.5)” near -0.021, cut for the highest 2% near 0.32. Some of the results follow.

Biological target: T1, Zap1 (UniProt P47043)
T1 sequence: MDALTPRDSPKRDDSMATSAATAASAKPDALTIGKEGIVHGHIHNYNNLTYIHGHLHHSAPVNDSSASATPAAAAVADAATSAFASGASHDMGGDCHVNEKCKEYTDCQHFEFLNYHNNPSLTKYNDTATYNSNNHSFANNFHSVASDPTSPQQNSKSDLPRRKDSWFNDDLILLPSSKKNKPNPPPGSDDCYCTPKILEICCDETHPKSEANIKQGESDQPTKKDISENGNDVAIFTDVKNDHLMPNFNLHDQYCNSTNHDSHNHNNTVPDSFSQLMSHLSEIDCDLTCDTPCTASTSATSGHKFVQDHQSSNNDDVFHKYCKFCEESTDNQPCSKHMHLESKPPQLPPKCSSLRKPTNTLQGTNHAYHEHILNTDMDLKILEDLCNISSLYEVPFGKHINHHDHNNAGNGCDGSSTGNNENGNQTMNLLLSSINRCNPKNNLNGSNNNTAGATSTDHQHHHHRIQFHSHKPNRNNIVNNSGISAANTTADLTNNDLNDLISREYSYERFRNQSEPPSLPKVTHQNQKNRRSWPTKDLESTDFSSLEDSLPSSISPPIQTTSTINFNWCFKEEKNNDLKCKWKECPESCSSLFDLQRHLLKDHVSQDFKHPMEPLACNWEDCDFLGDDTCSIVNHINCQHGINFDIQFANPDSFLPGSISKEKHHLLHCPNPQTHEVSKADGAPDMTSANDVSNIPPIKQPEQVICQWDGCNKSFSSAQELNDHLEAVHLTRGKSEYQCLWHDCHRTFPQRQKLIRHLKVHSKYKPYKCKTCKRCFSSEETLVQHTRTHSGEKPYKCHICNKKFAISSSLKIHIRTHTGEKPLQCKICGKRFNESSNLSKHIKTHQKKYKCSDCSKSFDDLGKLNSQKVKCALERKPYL
Assay: PBM E-score (8-mer binding enrichment) (E-score (-0.5 to 0.5)); higher = stronger / more preferred TF binding; most listed sequences are background and not binding sites
Details: protein concentration: 200 nM; construct: GST-full length
Summary of the method: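 PURExpress in vitro transcription/translation supplied GST-tagged yeast transcription factors, either full-length or DNA-binding domain. Applied at about 100-200 nM to universal all-10-mer Agilent arrays double-stranded by primer extension, the bound protein was detected with fluorescent anti-GST. E-scores, modified Wilcoxon-Mann-Whitney statistics, were given by the Universal PBM Analysis Suite to ungapped eight-base words pooled with their reverse complements after masliner normalisation.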

Sequence | PBM E-score
CCTATCCG | -0.0601
CGCGTTAA | 0.117
CGGCGACG | -0.175
AATCGTGA | 0.0307
CCTGTACG | -0.0288
AGTGTCGG | -0.122
CACGTCGG | -0.303
CAATCGGA | -0.102
ACGTCAGT | -0.317
GACGTATA | -0.238
CACGCCAA | -0.19
ATAAAAGC | -0.178
TTACCAAA | 0.211
AGTGGTTC | 0.129
GATGAGGC | -0.098
GAAGCGCA | -0.224
GCCTCTAC | 0.0481
CCAGCAGC | -0.134
AGGGTCAA | 0.416
GGTAATAC | 0.248
ATAAGTTA | 0.132
GTCGTAAC | 0.256
AGCCCTTA | -0.176
ACCGATAA | 0.24
CTGTAGTC | -0.0922

Sequence | PBM E-score
ACTAGCAG | 0.00907
AGCTCTAC | -0.0949
ATACTAAG | 0.0574
CCTTGCCA | -0.0128
GAATTCCC | -0.00977
CCGAGAAA | 0.187
ATGCTGCC | -0.17
CTCAGTCC | -0.304
CAACCATA | 0.0705
CGAATCAA | 0.0378
CGCGTGCA | -0.0396
GCGTAAGC | -0.239
CCGTGTAG | 0.0575
CAGCTATA | 0.0481
ATGCATAG | -0.12
CGCTAAGA | 0.0009
GGATTCCA | 0.0356
CGCCCCTC | 0.0497
CACGGGTC | 0.215
ATCACATA | 0.155
CACCATGA | 0.00417
CAGATCTA | -0.244
GACGGTAC | 0.183
GATGAGCC | -0.204
GGCTTCCA | -0.298

Sequence | PBM E-score
ATGATAAC | 0.201
ATGCAACG | -0.161
AGGTATGA | 0.291
ACAACGTC | -0.203
ATGACCGC | 0.302
CTTTCCGA | 0.0215
CGCGAACA | 0.188
AATTGCTC | -0.233
ACTGATCA | 0.151
CCGCTTTA | -0.09
GCCCGAAA | 0.0437
ATAGATTA | 0.13
CATCGCAG | -0.126
GCCGTCCA | 0.00749
AGACGCTG | -0.266
GGGTGTTA | 0.0929
GACGGAGC | -0.214
ACAATCAA | -0.00207
CCCTAGCG | -0.0546
AAATGATG | 0.0598
AACGACAA | 0.0795
ATCGGTGA | 0.0975
CACATTCG | -0.0257
AGTCCACG | 0.0218
ATTACCGA | 0.18

Sequence | PBM E-score
AGATTATC | 0.0616
AATGCTCA | -0.145
CTCCCTAA | -0.143
AGCGAAGG | -0.059
CCGTTATC | 0.0246
CAGCTGTA | -0.203
TATTCGAA | 0.0178
CACCGGTA | 0.188
CAACAGAC | -0.0156
TGACGGCA | -0.224
CTAGTCCC | -0.248
AATGTACT | 0.0783
GTCAACAC | 0.0515
ACGGCTCG | -0.0135
CAGAAAAC | 0.0871
CACTGGTA | 0.114
CCATCGTC | -0.0439
AATAGAAT | 0.0431
GGTACACC | 0.0906
ATCACTAG | 0.00086
GTACGCAC | -0.0801
GAGTCCAA | -0.0278
CCAGAACG | -0.0194
ACCGGTCA | 0.24
ATCGCCCG | -0.251

Sequence | PBM E-score
AGCAGGCT | -0.24
ACTTCTCT | -0.0321
CTGACTTA | 0.0223
AATTGCCC | -0.118
TACCGTGA | 0.247
GAGACGGA | -0.188
CTTACATC | -0.00556
ACTGTCAA | -0.0221
ATGGTGCA | 0.0684
ATAGAGCG | -0.17
CTTGAGTC | -0.0467
GGCACCAA | 0.0722
ATTCGGAC | 0.0335
GATGTAGA | -0.0865
AACGCAAC | 0.235
ACTAATAT | 0.135
ATCGGTCG | 0.0271
GGTCTACA | 0.00432
AAAGCTCG | -0.121
GTAAATGA | 0.0351
AATTACAT | -0.00353
CGGGACAA | -0.0695
CAGATGGC | -0.149
CATATGGC | -0.066
ACATGAAA | -0.0064

Sequence | PBM E-score
ATTTGAGG | 0.0474
GTTGGTGA | 0.148
GGTCACTA | 0.25
CAGGGAAC | 0.144
AAGAACCA | 0.216
AATACGCT | -0.155
AATTCAGT | -0.198
AAATGTGC | 0.108
TGCGACCA | 0.171
GGCTCCGA | -0.112
CCGTGTGA | 0.00858
CGTGCAGA | 0.0489
TCTCGGAA | 0.0401
CATTCGAG | 0.013
AATTAAGG | 0.213
AGCCAAAG | -0.105
GACTCATC | -0.292
CAGGTGCC | -0.163
ACGCACGG | -0.123
ATTCGGTA | 0.203
GTCGATAA | -0.0534
AGATGGAC | -0.0642
ACTGAGCA | -0.177
AAAGAAGT | -0.028
ATGGGGGA | -0.259

Sequence | PBM E-score
CAACTTGA | 0.134
TCATCACA | -0.0219
AACGAATT | 0.121
GAAGATTA | 0.0698
CCAACAAA | 0.224
TAGGTGCA | -0.191
ACACAGCT | -0.124
AAACCTAA | 0.159
GAAGAACA | 0.101
ACAGGAAG | -0.112
CCCAGCAA | 0.0561
GCTAACCC | 0.32
CGAGAGGA | -0.0403
ATAGCTAG | -0.061
GTCAAGGA | -0.109
CATTGCAG | 0.041
CGACGGTA | 0.147
GATTTCTA | 0.00455
AGTTGACC | 0.123
CCAGAGAC | -0.175
ACGAATGG | 0.0825
AATGCGCT | -0.055
